The record followed here is publication PMC9911399, “Two distinct binding modes provide the RNA-binding protein RbFox with extraordinary sequence specificity”.

Numbering of substitutions follows the chain as printed; changes in the protein carry UniProt numbers. The list shows a part of the results.

Sequences and labels used below:
T1: RBFOX1 RRM RbFoxmut (Fox-RRM*) (Homo sapiens, UniProt Q9NWB1 109-208, R118D;E147R;N151S;E152T)
T1 sequence: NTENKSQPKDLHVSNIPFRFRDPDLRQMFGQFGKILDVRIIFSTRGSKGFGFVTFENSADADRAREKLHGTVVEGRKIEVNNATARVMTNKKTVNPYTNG

B1: AGCCAAU (DNA:RNA)
RNA: GGGAGACCGGAAUUCAGAUUGUCCAGCCAAUUUAAAUCCCGUCGUAGCCACCA
DNA 1: CAATCTGAATTCCGGTCTCCC
DNA 2: TGGTGGCTACGACGGGATT
B2: GCGUCUC (DNA:RNA)
RNA: GGGAGACCGGAAUUCAGAUUGUCCGCGUCUCUUAAAUCCCGUCGUAGCCACCA
DNA 1: CAATCTGAATTCCGGTCTCCC
DNA 2: TGGTGGCTACGACGGGATT
B3: AUUGAAU (DNA:RNA)
RNA: B1 RNA with G26U, C27U, C28G
DNA 1: CAATCTGAATTCCGGTCTCCC
DNA 2: TGGTGGCTACGACGGGATT
B4: CCUAGUU (DNA:RNA)
RNA: B2 RNA with G25C, G27U, U28A, C29G, C31U
DNA 1: CAATCTGAATTCCGGTCTCCC
DNA 2: TGGTGGCTACGACGGGATT
B5: AUAUGCU (DNA:RNA)
RNA: B1 RNA with G26U, C27A, C28U, A29G, A30C
DNA 1: CAATCTGAATTCCGGTCTCCC
DNA 2: TGGTGGCTACGACGGGATT
B6: AAAUACG (DNA:RNA)
RNA: B1 RNA with G26A, C27A, C28U, A30C, U31G
DNA 1: CAATCTGAATTCCGGTCTCCC
DNA 2: TGGTGGCTACGACGGGATT
B7: UUAACUU (DNA:RNA)
RNA: B2 RNA with G25U, C26U, G27A, U28A, C31U
DNA 1: CAATCTGAATTCCGGTCTCCC
DNA 2: TGGTGGCTACGACGGGATT
B8: AGCGUCG (DNA:RNA)
RNA: B1 RNA with C28G, A29U, A30C, U31G
DNA 1: CAATCTGAATTCCGGTCTCCC
DNA 2: TGGTGGCTACGACGGGATT
B9: AAAUUGG (DNA:RNA)
RNA: B1 RNA with G26A, C27A, C28U, A29U, A30G, U31G
DNA 1: CAATCTGAATTCCGGTCTCCC
DNA 2: TGGTGGCTACGACGGGATT
B10: CUUUCUU (DNA:RNA)
RNA: B2 RNA with G25C, C26U, G27U, C31U
DNA 1: CAATCTGAATTCCGGTCTCCC
DNA 2: TGGTGGCTACGACGGGATT
B11: UAUCAAU (DNA:RNA)
RNA: B1 RNA with A25U, G26A, C27U
DNA 1: CAATCTGAATTCCGGTCTCCC
DNA 2: TGGTGGCTACGACGGGATT
B12: GUGAGUG (DNA:RNA)
RNA: B2 RNA with C26U, U28A, C29G, C31G
DNA 1: CAATCTGAATTCCGGTCTCCC
DNA 2: TGGTGGCTACGACGGGATT
B13: CCGGUCC (DNA:RNA)
RNA: B2 RNA with G25C, U28G, C29U, U30C
DNA 1: CAATCTGAATTCCGGTCTCCC
DNA 2: TGGTGGCTACGACGGGATT
B14: UUUUAGC (DNA:RNA)
RNA: B2 RNA with G25U, C26U, G27U, C29A, U30G
DNA 1: CAATCTGAATTCCGGTCTCCC
DNA 2: TGGTGGCTACGACGGGATT
B15: CCUCUCU (DNA:RNA)
RNA: B1 RNA with A25C, G26C, C27U, A29U, A30C
DNA 1: CAATCTGAATTCCGGTCTCCC
DNA 2: TGGTGGCTACGACGGGATT
B16: CUUGAUA (DNA:RNA)
RNA: B1 RNA with A25C, G26U, C27U, C28G, A30U, U31A
DNA 1: CAATCTGAATTCCGGTCTCCC
DNA 2: TGGTGGCTACGACGGGATT
B17: UCUCCCA (DNA:RNA)
RNA: B2 RNA with G25U, G27U, U28C, U30C, C31A
DNA 1: CAATCTGAATTCCGGTCTCCC
DNA 2: TGGTGGCTACGACGGGATT
B18: GUUAGCU (DNA:RNA)
RNA: B1 RNA with A25G, G26U, C27U, C28A, A29G, A30C
DNA 1: CAATCTGAATTCCGGTCTCCC
DNA 2: TGGTGGCTACGACGGGATT
B19: CGCGCGC (DNA:RNA)
RNA: B1 RNA with A25C, C28G, A29C, A30G, U31C
DNA 1: CAATCTGAATTCCGGTCTCCC
DNA 2: TGGTGGCTACGACGGGATT
B20: UCGCGAU (DNA:RNA)
RNA: B1 RNA with A25U, G26C, C27G, A29G
DNA 1: CAATCTGAATTCCGGTCTCCC
DNA 2: TGGTGGCTACGACGGGATT

In the test the target is T1, RBFOX1 RRM RbFoxmut (Fox-RRM*). The experiment in a line: EMSA; HiTS-Eq, 1 nM pool, 10 min; buffer printed only for the single-RNA assays: 10 mM Tris pH 7.5, 150 mM NaCl, 3.4 mM EDTA, 0.001% NP-40, 30 C. Conditions: tags: His6 N-terminal (pET28a); label: 5' 32P. In outline:
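A pool of RNA with 7 randomized nucleotides, 5′-radiolabelled and with DNA-annealed flanks, was equilibrated at 1 nM for 10 min in 50 µL with purified RbFox RRM, wild type or mutant, across increasing protein concentrations. Free RNA was separated by 8% native PAGE, excised, reverse-transcribed, barcoded by PCR and sequenced. Relative association constants were obtained from read-count changes of each RNA species versus the control reaction and normalised to the cognate motif.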
Background: Mobility shift assays separate free from complexed probe on a gel.
Turning to B1, the binding signal is 0.0479 KA relative to UGCAUGU. B2: the binding signal is 0.072 KA relative to UGCAUGU. B3: the binding signal is 0.135 KA relative to UGCAUGU. Consider B4, for which the binding signal is 0.0853 KA relative to UGCAUGU. B5: the binding signal is 0.129 KA relative to UGCAUGU.

For B6, the binding signal is 0.115 KA relative to UGCAUGU. Take B7: the binding signal was 0.0767 KA relative to UGCAUGU. Turning to B8, the binding signal was 0.1 KA relative to UGCAUGU.

For the molecule B9, the binding signal is 0.0727 KA relative to UGCAUGU. For B10, the binding signal is 0.088 KA relative to UGCAUGU. On to B11, for which the binding signal is 0.0491 KA relative to UGCAUGU. As for B12, the binding signal is 0.297 KA relative to UGCAUGU. With B13 the figure was 0.0485 KA relative to UGCAUGU; with B14, 0.109 KA relative to UGCAUGU; with B15, 0.0597 KA relative to UGCAUGU. Turning to B16, the binding signal was 0.134 KA relative to UGCAUGU. To B17 belongs 0.0816 KA relative to UGCAUGU; to B18, 0.104 KA relative to UGCAUGU. Consider B19, for which the binding signal was 0.117 KA relative to UGCAUGU.

On to B20, for which the binding signal was 0.0691 KA relative to UGCAUGU.
